The supplement of paper PMC3334620
Whole data set: some 33,000 sequences, median “E-score (-0.5 to 0.5)” near -0.053, cut for the highest 2% near 0.37. Some of the results follow.

Target: Hap1 (UniProt P0CE41)
Assay: PBM E-score (8-mer binding enrichment) (E-score (-0.5 to 0.5)); higher = stronger / more preferred TF binding; most listed sequences are background and not binding sites
Conditions: protein concentration: 200 nM; construct: GST-DNA-binding domain
Summary of the method: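 Each ungapped eight-base word and its reverse complement, pooled, received an E-score from the Universal PBM Analysis Suite. Underlying scans, normalised with masliner, recorded fluorescent anti-GST bound to GST-tagged yeast transcription factors. These were applied at about 100-200 nM to universal all-10-mer Agilent arrays double-stranded by primer extension.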

Chain of UniProt P0CE41 (P0CE41 whole entry): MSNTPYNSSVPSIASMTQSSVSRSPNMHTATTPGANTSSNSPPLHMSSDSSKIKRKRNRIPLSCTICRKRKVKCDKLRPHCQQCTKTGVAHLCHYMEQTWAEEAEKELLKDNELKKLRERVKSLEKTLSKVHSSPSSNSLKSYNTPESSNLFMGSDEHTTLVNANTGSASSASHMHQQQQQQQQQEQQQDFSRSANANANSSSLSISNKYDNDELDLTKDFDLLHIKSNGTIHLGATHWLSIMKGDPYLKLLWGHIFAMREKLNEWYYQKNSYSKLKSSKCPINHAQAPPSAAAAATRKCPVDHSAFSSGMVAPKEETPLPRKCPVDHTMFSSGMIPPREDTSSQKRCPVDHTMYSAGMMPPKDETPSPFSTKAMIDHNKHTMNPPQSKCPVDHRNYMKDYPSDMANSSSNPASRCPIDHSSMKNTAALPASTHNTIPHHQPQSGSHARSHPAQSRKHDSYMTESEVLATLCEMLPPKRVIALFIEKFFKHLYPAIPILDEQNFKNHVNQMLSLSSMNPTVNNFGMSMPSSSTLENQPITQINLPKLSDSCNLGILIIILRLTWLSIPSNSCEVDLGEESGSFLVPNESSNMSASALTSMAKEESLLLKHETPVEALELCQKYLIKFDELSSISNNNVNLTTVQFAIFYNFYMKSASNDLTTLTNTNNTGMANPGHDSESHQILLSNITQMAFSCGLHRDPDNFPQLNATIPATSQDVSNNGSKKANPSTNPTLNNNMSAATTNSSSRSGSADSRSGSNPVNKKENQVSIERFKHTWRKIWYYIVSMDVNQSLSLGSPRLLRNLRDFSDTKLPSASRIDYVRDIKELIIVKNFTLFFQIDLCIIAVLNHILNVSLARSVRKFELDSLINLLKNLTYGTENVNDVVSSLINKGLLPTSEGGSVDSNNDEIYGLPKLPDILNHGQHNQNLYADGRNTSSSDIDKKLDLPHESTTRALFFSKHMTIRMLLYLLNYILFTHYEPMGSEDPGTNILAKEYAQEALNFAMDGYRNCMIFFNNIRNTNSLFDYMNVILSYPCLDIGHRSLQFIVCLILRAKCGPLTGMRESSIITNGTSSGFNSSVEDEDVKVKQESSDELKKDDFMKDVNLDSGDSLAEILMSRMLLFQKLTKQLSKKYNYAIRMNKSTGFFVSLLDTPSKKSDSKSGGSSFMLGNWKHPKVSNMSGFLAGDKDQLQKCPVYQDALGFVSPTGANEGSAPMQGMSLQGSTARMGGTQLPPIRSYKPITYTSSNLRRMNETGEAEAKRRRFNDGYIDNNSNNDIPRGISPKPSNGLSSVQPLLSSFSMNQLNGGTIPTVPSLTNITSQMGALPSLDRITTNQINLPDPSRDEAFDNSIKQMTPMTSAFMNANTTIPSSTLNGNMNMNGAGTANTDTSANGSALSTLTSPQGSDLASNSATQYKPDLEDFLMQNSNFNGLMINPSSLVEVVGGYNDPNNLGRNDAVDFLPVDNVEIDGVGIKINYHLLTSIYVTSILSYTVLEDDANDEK

Sequence | PBM E-score
ACTTGAAC | -0.0526
ACCGGTTG | 0.245
CGTCTCTC | 0.0635
ACTCTTCA | -0.163
GTCGAATA | -0.0336
CATAATGG | -0.101
ATACGCTA | 0.058
AGACGGAG | 0.161
GATATGAA | -0.0256
CACAGCGA | -0.00276
CCGTTACC | 0.258
ATCTTAGA | 0.066
ATTATGTA | 0.033
GACTACAA | -0.183
ACGAGCGA | -0.259
ATCTCGAC | -0.0457
CGCAGATA | 0.202
CAGGAGGA | -0.135
GAATGGCA | 0.111
GTATCTAA | 0.00297
AGGCAGTA | -0.347
TAACGAAA | -0.0382
GAACATAC | 0.125
ACAAAAAC | -0.0594
GGCAACAC | -0.0557

Sequence | PBM E-score
TCCGTACA | 0.267
AGTCGTTA | -0.192
ACGGTGTA | 0.0706
CGTCCCCC | 0.0215
ATAATCGG | 0.274
CCTTGTTA | -0.191
ATACCATC | -0.0305
ATCTGATG | -0.241
GCGGAAAC | 0.24
ACAGTGCG | -0.131
GAGCGATA | 0.242
ACTCCTCG | -0.0163
AAGAATAT | -0.00079
GCGCACAA | -0.0213
CTAGTTGC | -0.0278
TCTACAAA | -0.269
AATGTAGT | -0.112
ACTTGAGA | -0.185
AACATGTA | -0.0249
AATCTTAT | -0.0635
ACTTTCCG | 0.285
AGCAATAC | -0.0164
ATCAATTA | 0.0775
ACCTTGGG | -0.0978
AGGTGGCG | -0.0898

Sequence | PBM E-score
TGTGTGAA | -0.247
TCATGAAA | -0.00377
GAGCCGGC | 0.339
AGTTTATG | -0.185
CACCTCTC | -0.122
CTAAGATA | -0.138
CAGTTCGG | 0.296
ATGTGTCG | -0.0893
CGTGAGCC | -0.185
GTTTTCGA | -0.166
CACAAATC | -0.00686
CATTGGTC | -0.0269
AACGAAAG | -0.199
GGGGTGGA | -0.0146
AAAGTTCC | 0.214
CAACAGTA | -0.151
AATATTCA | -0.174
AAGTCCCA | -0.0327
AGTAGATC | 0.0489
CTGAGTGA | 0.041
AAAAAGCG | 0.198
ACCGACAA | 0.304
GGGGCTCA | -0.167
CACTTACA | -0.168
CCCTATCC | -0.0196

Sequence | PBM E-score
AAAGAAAT | -0.0425
GCTGTCGA | -0.0635
ATTCCCCG | 0.286
CATTTGAG | -0.00565
CACTGCTG | -0.261
CGGGACCA | 0.15
AATTTCAT | -0.311
ACAGCGCC | 0.101
AAGACCTA | -0.00564
ACAGGTCA | -0.221
CTCGGGTA | 0.264
CGCCCGTC | 0.296
AATACGGG | 0.12
GTGTACTA | -0.143
GTCGGAAA | 0.361
GCGCCGCC | 0.136
ATTCTACG | 0.0383
GTAAGGTA | -0.212
AGAGGAAT | -0.205
GATGCGTA | -0.193
CAGTTCTC | -0.0677
CAAGCTTG | -0.176
ATGCCCTG | -0.187
AAACCCCC | 0.0478
AGACTTTC | -0.0993

Sequence | PBM E-score
CTATCTCA | -0.0749
ACATAATC | 0.0839
AGAGTATA | -0.147
GAGTTCCC | 0.103
ATGAGCCG | 0.0868
ACCTTCTG | 0.0098
CATATTCG | 0.0356
GCGTATAA | 0.143
GTAGACAA | -0.0438
ATCTATAG | -0.165
CTGATCCA | -0.0867
ACATCAAG | -0.0681
CGCGCTCC | 0.206
AACTCCGG | 0.481
GAGTGCTA | -0.0599
AGTTTGTC | -0.117
ATCGCTAC | 0.0409
AGTTACCG | 0.266
ACGGTATG | -0.0656
TGAACCAA | -0.232
AAATCAAA | -0.123
AAAGAGCG | 0.0872
AACAAGCC | -0.154
GCCCCACA | -0.237
GCGGGTCC | 0.187

Sequence | PBM E-score
GCTATTCC | 0.125
CGTCCTTA | -0.0249
AATATAGG | 0.0252
TCGAACAA | -0.132
CTGGCTCA | -0.224
CGTGGGAC | -0.0224
ACATCTGG | -0.136
GAAGGAGC | -0.223
CTCCACGA | 1e-05
GAATTGAC | 0.0531
ATGCCTTG | -0.2
CCAGGGCG | 0.199
CGACGGAG | 0.287
ATTGATGG | -0.0931
CACCGGTG | 0.24
CCTACGAA | -0.163
GAAGGTCA | -0.223
CCGTTCAC | -0.0828
ACCTCCTC | -0.197
CGCATCGC | -0.0669
GAATCTCC | 0.294
CCCTTCTC | -0.175
CTTGTGTA | -0.254
CCGAAAGA | 0.319
ATCCTCCG | 0.243

Sequence | PBM E-score
CTAGTAAC | -0.206
GACAATAA | 0.0844
CGACACTC | 0.081
ATCGTCGC | -0.126
CAGCGCGG | 0.164
CGATTCTC | 0.0688
ACGTACTA | -0.104
GAGGGGAA | 0.148
GACCCGCA | 0.128
CCTACTCC | -0.105
GCGCTCCA | -0.00761
CGGACGAA | 0.431
ACGGGCCC | 0.214
GGACTTGA | 0.0649
ATTCTTGG | 0.0308
ATTAAACC | 0.181
AGACCCCT | -0.281
ATCAATGA | -0.0255
GGCCCACC | 0.0393
CACTAAGG | 0.0292
ACACATAT | -0.0802
CTGAGGTA | -0.0816
